Measurements from PubChem BioAssay AID900 (National Center for Advancing Translational Sciences (NCATS), 2007).
“And” between values parts separate entries of the source, which are not always exact repeats. Equal entries are not always repeated. Hit rate of the full screen: of about 75,000 compounds, about 20 (0.03%) were called active. Inconclusive results, whose numbers are uncertain, are shown with a selection of clear calls. Calls follow the shape of the dose curve; as a rule, active = well fitted inhibition curve with a large enough effect; inconclusive = small, poorly fitted or top-dose-only effect; inactive = flat fitted curve, though single readings scatter. No potency is given beside an inconclusive call; the fits are too rough.
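For activity change, negative = inhibition in this document: plate controls were vehicle for no effect and no substrate for full effect.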
Potency is read from the fitted curve at half-maximal effect; tags tell the direction and shape of the fitted curve or compound fluorescence and quenching.

The compounds below were run against Caspase-1 (Homo sapiens) (UniProt P29466) (assay: qHTS Assay for Allosteric/Competitive Inhibitors of Caspase-1). Settings: Caspase-1 enzyme, Ac-WEHD-AFC fluorogenic rate; activity change, negative = inhibition: at 57.5 µM (top of the series) unless noted.
In the case of Cc1cc(NC(=O)CC2CCCC2)n(-c2nc3ccccc3[nH]2)n1, the Potency is reported as “inactive”.
Cc1ccc(C(=O)Nc2ccc(S(=O)(=O)O)c3cc(S(=O)(=O)O)cc(S(=O)(=O)O)c23)cc1NC(=O)c1cccc(NC(=O)Nc2cccc(C(=O)Nc3cc(C(=O)Nc4ccc(S(=O)(=O)O)c5cc(S(=O)(=O)O)cc(S(=O)(=O)O)c45)ccc3C)c2)c1 was tested, and the Potency was inconclusive [inhibitor, single point].
In the case of Nc1c(C(=O)OCC2CCCO2)c2nc3ccccc3nc2n1C1CCCCC1 (configuration not stated), the Potency is reported as inconclusive [inhibitor, full curve].
Cn1cccc1-c1nc2ccc(NC(=O)c3cccs3)cc2[nH]1 was tested, and the Potency was “inactive”.
CSC1=C(C#N)C(c2cccc(Br)c2)CC(=O)N1 (configuration not stated) was tested, and the Potency was “inactive”.
With CN(c1ccc(O)cc1)c1nc(-c2ccccc2)cs1 the Potency was “inactive”.
For COc1ccc(C2CC(=O)C3=C(C2)NC(C)=C(C#N)C3c2ccc(N(C)C)cc2)cc1 (configuration not stated), the activity change, negative = inhibition was inconclusive: -16.6% [inhibitor].
For COc1ccccc1N1C(=O)N(C(C)=O)C2C1Nc1ccccc1N2C (configuration not stated), the Potency was inconclusive [inhibitor, partial curve].
CCOC(=O)c1cc(-c2cccs2)nc2onc(C)c12 was tested, and the Potency was inconclusive [inhibitor, single point].
For O=c1cnc2cnc(Nc3ccccc3)nc2n1CCc1ccccc1, the Potency was inconclusive [inhibitor, partial curve].
O=C(Nc1ccc2c(c1)nc1n2CCN(C2CCCCC2)C1)c1ccco1 was tested, and the Potency was inconclusive [inhibitor, partial curve].
With CCOc1ccc(CCNC(=O)c2oc3c(c2C)-c2[nH]ncc2CC3)cc1OCC the activity change, negative = inhibition was inconclusive: -15.3% [inhibitor].
CCCCCCn1cnc2c(c1=O)c1nc3ccccc3nc1n2Cc1cccs1 was tested, and the Potency was “inactive”.
With Cc1ccc2cc(C#N)c(N3CCCC3)nc2c1C the Potency was inconclusive [inhibitor, partial curve].
With Cc1ccc(-c2cc(-c3cccc(F)c3)n[nH]2)c(O)c1 the Potency was inconclusive [inhibitor, single point].
For COc1ccc(C2CC(=O)N3CN(c4ccccc4F)CSC3=C2C#N)cc1OC (configuration not stated), the Potency was inconclusive [inhibitor, single point].
With COc1cc(-c2nc3ccccn3c2NCC2CCCO2)ccc1O (configuration not stated) the Potency was inconclusive [inhibitor, single point].
For CCOC(=O)N1CCN(c2ccc(C(=O)c3cccc(F)c3)cc2)CC1, the Potency was inconclusive [inhibitor, single point].
Cc1ccc2cc(CN(CCO)Cc3nnnn3Cc3ccc(F)cc3)c(=O)[nH]c2c1 was tested, and the Potency was inconclusive [inhibitor, single point].
CCc1ccc(CNc2ccc(O)cc2)cc1 was tested, and the Potency was inconclusive [inhibitor, partial curve].
For COc1nc(Nc2cccc(C)c2)nc(N2CCCCC2)n1, the Potency was “inactive”.
Cc1ccc(-c2nn(-c3ccccc3)cc2/C=C(\C#N)c2cccc(C#N)c2)o1 was tested, and the Potency was inconclusive [inhibitor, partial curve].
COCCNC(=O)C(c1ccccc1)N(Cc1cccs1)C(=O)Cn1nnc2ccccc21 (configuration not stated) was tested, and the Potency was “inactive”.
In the case of COc1ccc2cc(C(c3nnnn3Cc3ccccc3)N3CCCCCC3)c(=O)[nH]c2c1 (configuration not stated), the Potency is reported as inconclusive [inhibitor, partial curve].
For O=C1c2ccccc2C(O)(O)[C@@]1(O)[C@]1(O)C(=O)c2ccccc2C1(O)O, the activity change, negative = inhibition was inactive: -0.775% [at 11.5 µM].
For O=C(CSc1nc2scc(-c3ccco3)c2c(=O)n1-c1ccccc1)NCC1CCCO1 (configuration not stated), the Potency was “inactive”.
In the case of CCOC(=O)CC(=O)CSc1nc2ccc(C)cc2cc1C#N, the Potency is reported as inconclusive [inhibitor, single point].
In the case of CCOc1ncccc1C(=O)NCC1COc2ccccc2O1 (configuration not stated), the Potency is reported as “inactive”.
For CN1C(=O)c2ccccc2N(C)C1c1cccs1 (configuration not stated), the Potency was inconclusive [inhibitor, partial curve].
COc1cccc(/C=N/n2c(SC)nnc2-c2ccccc2)c1O was tested, and the Potency was inconclusive [inhibitor, partial curve].
With c1cncc(C2Nc3ccccc3-c3nc4ccccc4n32)c1 (configuration not stated) the Potency was inconclusive [inhibitor, partial curve].
In the case of CN1C(=O)c2cccc(NCCCN3C(=O)c4ccccc4C3=O)c2C1=O, the Potency is reported as inconclusive [inhibitor, partial curve].
With Cc1oc2c(CN3CCCC3)c(O)ccc2c(=O)c1Oc1ccccc1Br the Potency was inconclusive [inhibitor, partial curve].
In the case of CNNCc1ccc(C(=O)NC(C)C)cc1, the Potency is reported as “inactive”.
In the case of CC(=O)OCCNc1cc(N2CCN(C)CC2)c2noc3c2c1C(=O)c1ccccc1-3, the activity change, negative = inhibition is reported as inconclusive: -17.5% [inhibitor].
For Fc1ccc(Nc2ccnc(-c3ccoc3)n2)cc1, the Potency was “inactive”.
With COc1ccc(-c2cn3c(C)c(C(=O)Nc4cccc(NC(C)=O)c4)sc3n2)cc1 the Potency was “inactive”.
With C=CC(C1=CC(=O)C(OC)=C(OC)C1=O)c1ccccc1 (configuration not stated) the Potency was “inactive”.
For CCC1=C(OC(=O)N(CC)CC)N2C(=O)OC(=NCCc3c[nH]c4ccccc34)[C@]2(C)[C@H]2C1=CC[C@H]1C(=O)N(CC)C(=O)[C@H]12, the Potency was “inactive”.
CCOC(=O)c1c(NC(=O)c2ccc(Br)o2)sc(C)c1CC was tested, and the Potency was inconclusive [inhibitor, partial curve].
With NC1=N[C@H](c2ccc(Cl)cc2)N(c2ccc(S(N)(=O)=O)cc2)C(N)=N1 the activity change, negative = inhibition was inactive: -0.261% [at 11.5 µM].
For COC(=O)Cc1[nH]nc2c1C(c1c[nH]c3ccccc13)C(C#N)=C(N)O2 (configuration not stated), the Potency was inconclusive [inhibitor, partial curve].
In the case of Oc1ccc(Cl)cc1/C=N/c1nccs1, the Potency is reported as inconclusive [inhibitor, partial curve].
For CCOC(=O)C1CCN(C(=O)Nc2ccc3nc(C)c(C)nc3c2)CC1, the Potency was inconclusive [inhibitor, partial curve].
For CCOc1ccc2nc(N3CCCC(C(=O)NCCCN4CCOCC4)C3)sc2c1 (configuration not stated), the Potency was “inactive”.
In the case of CCN1C(=O)c2c(C)nc3ccccc3c2C1=O, the Potency is reported as “inactive”.
For CC(C(=O)NCC1CCCO1)N(C(=O)c1snc(C(N)=O)c1N)c1cccc(F)c1 (configuration not stated), the Potency was inconclusive [inhibitor, partial curve].
In the case of CCC(c1nnnn1Cc1ccco1)N(CCc1ccccc1)Cc1cc2cc(C)ccc2[nH]c1=O (configuration not stated), the Potency is reported as inconclusive [inhibitor, partial curve].
With Nc1ccc(O)c(C(=O)O)c1 the Potency was active: 6.31 µM and active: 12.6 µM.
In the case of c1ccc(CN(Cc2ccco2)C(c2ccncc2)c2nnnn2C2CCCC2)cc1 (configuration not stated), the Potency is reported as inconclusive [inhibitor, single point].
For CCOC(=O)c1cnc(-n2nc(C)cc2C)nc1N1CCOCC1, the Potency was “inactive”.
With COc1ccc(Cl)cc1NC(=O)CN(C)C(C)C(=O)NCC1CCCCC1 (configuration not stated) the Potency was “inactive”.
With O=C(c1cc2nc(-c3ccco3)cc(C(F)(F)F)n2n1)N1CCN(c2ccccn2)CC1 the Potency was inconclusive [inhibitor, partial curve].
For CN(C)c1ccc2c(c1)OC(N)=C(C#N)C2c1cccc(F)c1 (configuration not stated), the Potency was inconclusive [inhibitor, partial curve].
For CCc1c(C)sc(NC(=O)CC#N)c1C#N, the Potency was “inactive”.
With O=C(O)C(Cc1cccs1)C(=O)O the activity change, negative = inhibition was inactive: 2.06% [at 11.5 µM].
COC(=O)C1C(=O)C2=C(CC1C)NC(C)=C(C(=O)OC1CCCCC1)C2c1ccc(N(C)C)cc1 (configuration not stated) was tested, and the Potency was inconclusive [inhibitor, partial curve].
For NC(=S)c1ccc[n+]([C@@H]2O[C@@H](COP(=O)([O-])OP(=O)(O)OC[C@@H]3O[C@@H](n4cnc5c(N)ncnc54)[C@@H](OP(=O)(O)O)[C@H]3O)[C@@H](O)[C@H]2O)c1, the Potency was “inactive”.
Nc1cc(N)c(OCC(F)(F)F)cc1OCC(F)(F)F was tested, and the Potency was inconclusive [inhibitor, partial curve].
For Cc1ccc(-n2c(C)cc(C3N=C(N)Nc4nc5ccccc5n43)c2C)c(C)c1 (configuration not stated), the Potency was “inactive”.
In the case of COc1ccc(NC(=O)N2CC[C@@]3(CCCN(S(C)(=O)=O)C3)C2)cc1, the activity change, negative = inhibition is reported as inconclusive: -17.6% [inhibitor].
For COc1ccc(OC)c(C(c2nnnn2C2CCCC2)N2CCc3ccccc3C2)c1 (configuration not stated), the activity change, negative = inhibition was inconclusive: -16% [inhibitor].
O=C(NCCO)c1ccc2[nH]c3c(c2c1)CCCC3 was tested, and the Potency was inconclusive [inhibitor, partial curve].
In the case of COC(=O)C(C#N)c1nc2ccccc2nc1N1CCCC1 (configuration not stated), the Potency is reported as inconclusive [inhibitor, partial curve].
O=C(NCCCN1CCOCC1)c1ccc(-n2c(=O)c(=O)[nH]c3ccccc32)cc1 was tested, and the Potency was “inactive”.
For Cc1noc(C)c1C(=O)N1CCC2(CCCN(Cc3nccs3)C2)CC1, the Potency was “inactive”.
Nc1sc2c(c1C(=O)NC1CCS(=O)(=O)C1)CCC2 (configuration not stated) was tested, and the Potency was inconclusive [inhibitor, single point].
For CCOc1cc2[nH]c(=S)n(CCCOC)c(=O)c2cc1OCC, the Potency was “inactive”.
For O=C(Nc1ccc(NC(=O)C23CC4CC(CC(C4)C2)C3)cn1)c1ccco1, the Potency was “inactive”.
For COc1ccc(Oc2ncc3nc(-c4ccccc4)c(=O)n(CCC#N)c3n2)cc1, the Potency was inconclusive [inhibitor, single point].
With CC(N=Cc1cccc(O)c1O)c1ccccc1 (configuration not stated) the Potency was “inactive”.
With O=C1CSC(=S)N1c1cccnc1 the activity change, negative = inhibition was inconclusive: -15.7% [inhibitor].
